Whole data set: some 4,000 sequences, median “arbitrary fluorescence units” near 830, cut for the highest 2% near 6,500. The list lacks most of the strong results.
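Note: Full-length recombinant human RUNX1 bound to double-stranded DNA microarray spots, detected with an Alexa488-labelled secondary antibody after the anti-RUNX1 primary, read as scanned spot fluorescence.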

Chain of UniProt Q01196 (Q01196 whole entry): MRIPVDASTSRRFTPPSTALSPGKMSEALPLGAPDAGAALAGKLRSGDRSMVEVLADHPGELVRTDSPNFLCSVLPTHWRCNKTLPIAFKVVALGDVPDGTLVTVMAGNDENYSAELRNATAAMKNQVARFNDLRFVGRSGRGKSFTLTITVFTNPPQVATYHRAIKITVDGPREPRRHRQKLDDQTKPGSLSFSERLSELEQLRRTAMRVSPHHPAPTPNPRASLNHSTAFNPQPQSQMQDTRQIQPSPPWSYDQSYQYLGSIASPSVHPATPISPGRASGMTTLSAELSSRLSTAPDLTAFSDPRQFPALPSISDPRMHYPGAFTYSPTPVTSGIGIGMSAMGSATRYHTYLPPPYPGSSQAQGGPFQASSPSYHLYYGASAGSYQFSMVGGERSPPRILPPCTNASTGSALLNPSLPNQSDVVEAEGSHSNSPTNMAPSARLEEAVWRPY

The target of the test is RUNX1 (UniProt Q01196). Nature of the test: RUNX1 binding intensity (PBM fluorescence), RUNX1 alone (arbitrary fluorescence units); higher = stronger binding. To be noted: RUNX1 concentration 2 nM; ETS1 concentration 0 nM. Here is the method:
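gcPBM on 36-bp genomic-derived probes (partner site mutated) containing one RUNX1 site and no ETS1 site. Recombinant human RUNX1 (2 nM) was incubated alone or with ETS1 (25 nM) and detected by anti-RUNX1 antibody fluorescence. Values are medians over 4 replicate spots (not normalised). The probes sit in constant array flanks that are not printed.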
Regarding TGAGTCAGTAGCCACAAGTAGAACAGGCAGTGGAAA, the RUNX1 binding intensity was found to be 771.

CCCGGACCGTCTCCGTGCTGTGGTCCCGGGTTCTGG: the RUNX1 binding intensity worked out at 884.

On to TCGCCTCAGCCCACATATTCAACCCGGGAGCCTGGG, for which the RUNX1 binding intensity was determined as 983.

Turning to CTGTTCTCATCAGCCCGCTCTGAGTCACCCACACCT, the RUNX1 binding intensity is 916.

GCCCACTGCCTGCCGTAAGAGAAAACCACTAACACA showed an RUNX1 binding intensity of 1190.

CTCCTGCCTGATCGGGCAGGAACTAACCACAGGAGG showed an RUNX1 binding intensity of 831.

Take GACCCGCCCACAAGACCTGCCCCTTTCGGGTCCGTT: the RUNX1 binding intensity is 1050.

Regarding GAAGCCAGCAAATGGTGCGTGTGCGGGGCCGGGCGC, the RUNX1 binding intensity is 705.

GGAGAGTTGACTTTCGGCGGCTTGTGGGAGTGCTGG had an RUNX1 binding intensity of 644.

Sequence CTCCGGGAGCCCGCAAGCGGCTCCCGGGTGCTCGCA displayed an RUNX1 binding intensity of 707.

CACCTCCGTCCCCTACAACGCGGCCGACCGCGCGGA gave an RUNX1 binding intensity of 1040.

As to TCTGGCTTCATGTCTTAATAGGGCTTTGTGGTGTGC, the RUNX1 binding intensity is 748.

TGGCGGGAGAACGTCCCCCTGTGCGGTCGCGACGTG: the RUNX1 binding intensity was determined as 713.

In the case of ATGGGATTCCCGCAGGTTGCACCGAAGGACGCAAGG, the RUNX1 binding intensity came out at 785.

Consider CCAGCGCCGCGGTACAACCTCGGCACTTTCGCCCGC, for which the RUNX1 binding intensity was determined as 770.

Turning to CCCCCGTGTGGTCCGCCCATGCTAACTTGCTGCCGG, the RUNX1 binding intensity was found to be 906.

CATTTTGTCGCCGCAGCCACCTTGCTGGAGAGCCCG: the RUNX1 binding intensity turned out to be 1050.

In turn, TGCCTCTTCATGTGGCTGGGCTGTATCTGACCACAC returned an RUNX1 binding intensity of 680.

In turn, GCCTTTGCGGCAGTGTGCGCCCCGTAAGCCTGAAGC came in with an RUNX1 binding intensity of 716.

Regarding TCCAGCCGGGCGCGATGCCTGGAGGCTGCGGGCGCC, the RUNX1 binding intensity was found to be 697.

For the sequence GAGCGCAAACCCGAGAGTCAGTTCAACCACAGCCAC, the RUNX1 binding intensity worked out at 852.

The sequence TCGGTCTGCGGCTGCGCACAGCGCGAGGAGGCGCGG showed an RUNX1 binding intensity of 751.

As for GGGTTCCCGCAGCAACACGTACCGGCAAGCGTTTGG, the RUNX1 binding intensity worked out at 812.

AGATGAGGGAGTTGGGGTTTAGAGTGGTTAAACTGT registered an RUNX1 binding intensity of 719.

CTCCGGGAACAGCCGAAAAGGGACCGCATGAACCTC registered an RUNX1 binding intensity of 870.

TCTCTCTACGGAGGCTGGTAGGGCTGTGGGTGCTTC: the RUNX1 binding intensity worked out at 745.

Sequence CCGCGGCTGAACCCGAGGGCGGCGGCAGCGGTTTCA registered an RUNX1 binding intensity of 640.

CAAAACATGAACCACAAACCCCAGCTTCTTCTTGCA: the RUNX1 binding intensity amounted to 1650.

With GACGCTCTCTTTCTGTCTTTGTGGCTCCAGAAAGGC, the RUNX1 binding intensity worked out at 773.

As to CATGCGGTCCCTTTTGCGCTGTTCCCTGACGGACTA, the RUNX1 binding intensity was found to be 966.

Consider AAATGAGCGGTGGTTGAGCCCTACTTTCGGTGGTGC, for which the RUNX1 binding intensity came to 743.

TCCCCTTTCAGGGAAGGGTTGGGGATCTGACCACGT returned an RUNX1 binding intensity of 640.

ACACCGTAAGCCCAACAGCATGCCGAGTAACCACCC yielded an RUNX1 binding intensity of 940.

The sequence CACTTGGTCTTGCTGCCCTTGTGGCCCTAACACCCT yielded an RUNX1 binding intensity of 841.

For AATCCCGGCAACGCGGATTCAGCGGAGCGCGGTGAC, the RUNX1 binding intensity stood at 711.

On to AGGGACGAAGGGTACTGTTGGGAGCCCGCAATGGAA, for which the RUNX1 binding intensity is 668.

As for CGGGCTGGAATCACGATCCACCACACCGCGCTGGCT, the RUNX1 binding intensity came to 809.

Sequence ATCTTAGCCCACAGCCAAAGCTCTTGCTGGTTGCTC showed an RUNX1 binding intensity of 688.

Sequence CCCGCGGTCCAAAATCTGAGTAAAGCGAAAGTACGG registered an RUNX1 binding intensity of 766.

Take CTAGGCAGACCACAAACGTTAGGGCAGGCAATGATT: the RUNX1 binding intensity worked out at 1060.

For ATGGCGGAGCGAAAGTCCCAGCCACAACGCGAAAAG, the RUNX1 binding intensity amounted to 713.

The sequence TTGGCTTGTGGCTGGACTACATGTCCCAGCATCCCT gave an RUNX1 binding intensity of 738.

As for TCTGGGCTGACTTGCTGGCTTCGTCCCACAACTTCA, the RUNX1 binding intensity was found to be 772.

Take GTGTCTGTGGTGTCGGCGCTGCATGATGACGCGAGC: the RUNX1 binding intensity turned out to be 785.

For the sequence AGAAGTGCGGTGGAGGAGGGCTGGAACGGTGACTAT, the RUNX1 binding intensity was determined as 757.

Regarding GGCGGCTCCCGGGATCTGCCTGGCGGTTGCTTTGTC, the RUNX1 binding intensity was 665.

For CTTCGACCCCGTAAGCGCTAACCACCCCGGGGGCCG, the RUNX1 binding intensity was found to be 842.

Consider TGCTTCTGAGGCAGTGATCTGTGGTCAAAGAAAGAA, for which the RUNX1 binding intensity came to 780.

In turn, GCTAATGGAACCAGCACGCGGCCACCGCAGGAACCT displayed an RUNX1 binding intensity of 965.

GAATGACAGAAAGATGATTAGTGATAGTGGGTTTGG came in with an RUNX1 binding intensity of 764.

For the sequence CCAGTACCCCACTTGCTGACCAAACCACAAAGGTCA, the RUNX1 binding intensity amounted to 1910.

As for TCGGCGGCTATGAAAAAAAGTCCGTGGTCACGTGCA, the RUNX1 binding intensity was 775.

As for GTCTTGTTTTGTGGTGTAAGCACGTCCCGCTAAGCA, the RUNX1 binding intensity turned out to be 1290.

In turn, TGCGAACCTTGTGGCTTTGTCTGTTTCATGTTTCAG returned an RUNX1 binding intensity of 945.

Sequence ACCACCCACCTCCCGCGCAGTTCCAAACCGCGACCA showed an RUNX1 binding intensity of 1350.

On to CCCTGCCGTCGCGGTGCACTCTGGGACATGTGATTT, for which the RUNX1 binding intensity was 790.

Sequence GCTGGCAATTCGTTCCCTCTGTGGGAGGTGCTCCGC registered an RUNX1 binding intensity of 770.

GAGCAACCAGCAAGAGCTTTGGCTGTGGGCTAAGAT returned an RUNX1 binding intensity of 719.

Sequence TGGCCCCGGGGCCCCACAACGGCTTCATGTGTCCCG came in with an RUNX1 binding intensity of 693.

Take CTGTGCTTGTGGGCGAAGCCAGCAAATAAGGATAAA: the RUNX1 binding intensity came to 766.

With TTTGCTGTGGTTATGACTTTCAACATACTTGCTGCT, the RUNX1 binding intensity came to 1430.

Take GCTGCGGGCTGTCTTCACCTCAGACGTGAAGCTGCT: the RUNX1 binding intensity came to 767.

CATACAGCATGCTGGGGTATGTAAAACAAACCACGG registered an RUNX1 binding intensity of 799.

The values above are taken from the supplement of paper PMC10681739.
